In all, about 39,000 compounds went through this assay and about 220 (0.56%) showed activity. The list shows a part of the results.
Test system: Escherichia coli K-12 BW25113
Experiment: relative growth (OD600 normalised to plate interquartile mean) (fraction); higher = less growth inhibition, active = 0.2 or less
Settings: 50 µM; LB; incubation time: overnight (16-24 h)
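Note: static incubation at 37 °C against the wild-type strain, values averaged over two biological replicates.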

Structure (SMILES)	relative growth
C[C@@H]1CCCCO[C@@H](CN(C)Cc2ccc(C(=O)O)cc2)[C@@H](C)CN([C@@H](C)CO)C(=O)c2cc(NS(=O)(=O)c3ccccc3)ccc2O1	inactive: 1.03
CS(=O)(=O)Nc1ccc2c(c1)[C@H]1C[C@@H](CC(=O)NCC3CC3)O[C@@H](CO)[C@H]1O2	inactive: 1.01
C[C@H](CO)N1C[C@H](C)[C@@H](CN(C)Cc2ccc3c(c2)OCO3)OCc2ccccc2-c2c(n(C)c3ccccc23)C1=O	inactive: 0.997
CCNC(=O)C[C@@H]1C=C[C@H](NC(=O)C2CCOCC2)[C@H](CO)O1	inactive: 0.986
C[C@H](CO)N1C[C@H](C)[C@@H](CN(C)S(=O)(=O)c2ccc(Cl)cc2)Oc2ccc(NC(=O)CCN3CCOCC3)cc2CC1=O	inactive: 0.987
C[C@H](CO)N1C[C@H](C)[C@@H](CN(C)C(=O)NC2CCCCC2)OCCCC[C@H](C)Oc2ccc(NS(=O)(=O)c3cccs3)cc2C1=O	inactive: 1.02
C[C@H](CO)N1C[C@H](C)[C@H](CN(C)CC2CC2)Oc2c(NS(=O)(=O)c3cn(C)cn3)cccc2C1=O	inactive: 0.991
COc1cccc(S(=O)(=O)N(C)C[C@@H]2Oc3ncc(-c4cccc(C(=O)N(C)C)c4)cc3C(=O)N([C@@H](C)CO)C[C@H]2C)c1	inactive: 1.04
COC(=O)[C@H](Cc1ccccc1)N1CC(/C=C/C2CC2)=C[C@@H]1[C@@H](O)CCn1cc(-c2ccc(C(=O)NO)cc2)nn1	inactive: 1.02
C[C@@H]1CN([C@@H](C)CO)C(=O)c2cc(NC(=O)Nc3cccc4ccccc34)ccc2O[C@@H](C)CCCCO[C@@H]1CN(C)S(=O)(=O)c1ccccc1	inactive: 1.01
COc1ccc2cc1Oc1ccc(cc1)CC1c3cc(c(OC)cc3CCN1C)Oc1c(OC)c(OC)cc3c1C(C2)N(C)CC3 (centres undefined)	inactive: 0.94
Cc1ccc(S(=O)(=O)N(C)C[C@@H]2Oc3c(NS(=O)(=O)c4c(C)noc4C)cccc3C(=O)N([C@@H](C)CO)C[C@@H]2C)cc1	inactive: 1
C[C@@H]1CCCCO[C@H](CN(C)C(=O)NC2CCCCC2)[C@@H](C)CN([C@H](C)CO)C(=O)c2cc(NC(=O)Nc3cccc4ccccc34)ccc2O1	inactive: 1.02
C[C@@H]1CN([C@@H](C)CO)C(=O)Cc2cc(NC(=O)C3CCCCC3)ccc2O[C@@H]1CN(C)S(C)(=O)=O	inactive: 0.989
Cc1noc(C)c1S(=O)(=O)Nc1ccc2c(c1)C(=O)N([C@H](C)CO)C[C@@H](C)[C@@H](CN(C)C(=O)Nc1ccccc1)OCCCC[C@@H](C)O2	inactive: 1.03
CC(C)NC(=O)Nc1ccc2c(c1)CC(=O)N([C@@H](C)CO)C[C@H](C)[C@@H](CN(C)S(=O)(=O)c1ccc(F)cc1)O2	inactive: 1.02
COc1ccc(Oc2cc(NCCC(F)(F)F)c3ncc(-c4ccc(C(=O)NC5CC5)c(C)c4)n3n2)c(F)c1F	inactive: 0.999
C[C@@H]1CCCCO[C@@H](CN(C)C(=O)Cc2ccccc2)[C@@H](C)CN([C@@H](C)CO)C(=O)c2cc(NC(=O)Cc3ccccc3)ccc2O1	inactive: 1.02
CO[C@@H]1CN(C)C(=O)c2ccc(NC(=O)Nc3ccccc3F)cc2OC[C@H](C)N(Cc2ccccc2C(=O)O)C[C@H]1C	inactive: 0.991
C[C@H](CO)N1C[C@H](C)[C@H](CN(C)S(=O)(=O)c2ccccc2)Oc2ccc(NS(=O)(=O)c3ccc(F)cc3)cc2C1=O	inactive: 1.01

Structure (SMILES)	relative growth
O=C(O)c1cc(=O)c2cccc(O)c2[nH]1	inactive: 1
C[C@H](CO)N1C[C@H](C)[C@@H](CN(C)C(=O)Nc2cccc3ccccc23)OCCCC[C@H](C)Oc2ccc(N(C)C)cc2C1=O	inactive: 1.02
Cc1ccc(C(=O)Oc2ccc(/C=N/c3cccs3)cc2)cc1	inactive: 0.929
C[C@@H]1CCCCO[C@@H](CN(C)C(=O)Nc2ccc(C(F)(F)F)cc2)[C@H](C)CN([C@@H](C)CO)C(=O)c2cc(NC(=O)Cc3ccccc3)ccc2O1	inactive: 1
O=C1CCCNc2ccc(Cl)cc21	inactive: 0.864
C[C@H]1CN([C@@H](C)CO)C(=O)Cc2cc(NC(=O)CCN3CCOCC3)ccc2O[C@@H]1CN(C)Cc1ccncc1	inactive: 0.995
O=C(C[C@@H]1C[C@H]2c3cc(NS(=O)(=O)c4ccc(F)cc4)ccc3O[C@H]2[C@H](CO)O1)N1CCOCC1	inactive: 0.923
CC1=C(C(=O)O)N2C(=O)[C@@H](NC(=O)[C@@H](N)c3ccccc3)[C@H]2SC1	inactive: 0.998
C[C@H]1CCCCO[C@@H](CN(C)S(=O)(=O)c2cn(C)cn2)[C@@H](C)CN([C@@H](C)CO)C(=O)c2cc(NS(=O)(=O)c3ccccc3)ccc2O1	inactive: 0.995
C[C@@H]1CCCCO[C@H](CN(C)S(=O)(=O)c2ccccc2)[C@@H](C)CN([C@@H](C)CO)C(=O)c2cc(NC(=O)CCC(F)(F)F)ccc2O1	inactive: 1
CN1C(=O)c2cc(NC(=O)c3cccs3)ccc2OC[C@H]2O[C@@H](CC(=O)NCCN3CCCCC3)CC[C@H]21	inactive: 0.991
O=C(C[C@H]1CC[C@H](NC(=O)c2ccc(F)cc2)[C@@H](CO)O1)NCc1ccncn1	inactive: 1.04
O=C(O)[C@]1(O)C[C@@H](O)[C@@H](O)[C@H](O)C1	inactive: 0.958
CC(=O)N1Cc2cc(C(=O)NCC(F)(F)F)nc(-c3cccc(-c4cc5ccccc5o4)c3)c2[C@H]1CCO	inactive: 0.981
Cc1ccc(S(=O)(=O)NCC[C@@H]2CC[C@@H](NS(=O)(=O)c3ccccc3Cl)[C@@H](CO)O2)cc1	inactive: 0.983
CN(C)CC(=O)N1[C@@H]2c3ccc(-c4ccccc4)c(=O)n3C[C@H]1[C@H](CO)[C@H]2C(=O)N1CCN(C)CC1	inactive: 1
O=C(O)[C@]1(O)C[C@H](O)[C@@H](O)[C@@H](O)C1	inactive: 0.958
C[C@H]1CN([C@@H](C)CO)C(=O)c2cc(NC(=O)CCCN(C)C)ccc2O[C@@H]1CN(C)S(=O)(=O)c1cccs1	inactive: 1.03
Cc1ccc(S(=O)(=O)N(C)C[C@H]2Oc3c(NC(=O)c4ccncc4)cccc3C(=O)N([C@@H](C)CO)C[C@@H]2C)cc1	inactive: 0.986
C[C@H]1CN([C@@H](C)CO)C(=O)Cc2cc(NC(=O)C3CCCCC3)ccc2O[C@H]1CN(C)Cc1ccc(Oc2ccccc2)cc1	inactive: 1.02

Structure (SMILES)	relative growth
C[C@@H]1CN([C@@H](C)CO)C(=O)Cc2cc(NC(=O)Cn3cnnn3)ccc2O[C@@H]1CN(C)C(=O)Nc1ccccc1	inactive: 1.02
CN1CCN(C(=O)C[C@@H]2C=C[C@@H](NC(=O)Cc3ccccn3)[C@H](CO)O2)CC1	inactive: 1
Cc1ccc(S(=O)(=O)Nc2ccc3c(c2)C(=O)N([C@H](C)CO)C[C@H](C)[C@H](CN(C)Cc2ccc(-c4ccccc4)cc2)O3)cc1	inactive: 1.01
C[C@@H]1CCCCO[C@H](CN(C)C(=O)CCC(F)(F)F)[C@H](C)CN([C@@H](C)CO)C(=O)c2cc(NC(=O)CCCCCC(=O)Nc3ccccc3N)ccc2O1	inactive: 1.03
C[C@H]1CN([C@@H](C)CO)C(=O)Cc2cc(NC(=O)Cn3cnnn3)ccc2O[C@H]1CN(C)S(=O)(=O)c1cccs1	inactive: 0.972
COc1ccc(S(=O)(=O)Nc2ccc3c(c2)CC(=O)N([C@H](C)CO)C[C@@H](C)[C@@H](CN(C)S(=O)(=O)c2cn(C)cn2)O3)cc1	inactive: 1.01
CC(=O)N[C@@H]1[C@@H](O)[C@H](O)[C@@H](CO)O[C@H]1O	inactive: 0.95
C[C@H](CO)N1C[C@H](C)[C@H](CN(C)Cc2ccc(C(=O)Nc3ccccc3N)cc2)Oc2c(NC(=O)Nc3ccc(F)cc3)cccc2C1=O	inactive: 1.03
COc1cc(C2Oc3cc(C4Oc5cc(O)cc(O)c5C(=O)C4O)ccc3OC2CO)ccc1O (centres undefined)	inactive: 0.94
COc1cccc(C(=O)Nc2ccc3c(c2)C(=O)N(C)[C@H]2CC[C@@H](CC(=O)NCC4CC4)O[C@H]2CO3)c1	inactive: 0.991
COc1ccc(S(=O)(=O)Nc2ccc3c(c2)C(=O)N([C@@H](C)CO)C[C@@H](C)[C@@H](CN(C)C(=O)Nc2ccccc2)OCCCC[C@H](C)O3)cc1	inactive: 1.02
O=C(C[C@@H]1C=C[C@H](NC(=O)C2CC2)[C@@H](CO)O1)NCCCN1CCOCC1	inactive: 0.994
Cc1ccc(S(=O)(=O)N(C)C[C@@H]2OCCCC[C@H](C)Oc3ccc(NC(=O)NC4CCCCC4)cc3C(=O)N([C@@H](C)CO)C[C@H]2C)cc1	inactive: 0.975
COc1ccc(S(=O)(=O)Nc2cccc3c2O[C@@H](CN(C)S(=O)(=O)c2cccs2)[C@@H](C)CN([C@H](C)CO)C3=O)cc1	inactive: 1.01
COC(=O)CCCCCCC(=O)N/N=C/[C@H](O)[C@@H](O)[C@H](O[C@@H]1O[C@H](CO)[C@H](O)[C@H](O)[C@H]1O)[C@H](O)CO	inactive: 0.991
O=C(O)CCCC[C@@H]1SC[C@@H]2NC(=O)N[C@@H]21	inactive: 1
COc1ccc(S(=O)(=O)N(C)C[C@H]2OCCCC[C@H](C)Oc3ccc(NC(=O)Nc4c(C)noc4C)cc3C(=O)N([C@@H](C)CO)C[C@@H]2C)cc1	inactive: 1.02
C[C@H](CO)N1C[C@H](C)[C@H](CN(C)S(C)(=O)=O)Oc2ccc(NS(=O)(=O)c3ccc(F)cc3)cc2C1=O	inactive: 0.984
Cc1ccc(S(=O)(=O)N(C)C[C@H]2OCCCC[C@H](C)Oc3ccc(NC(=O)C4CCCCC4)cc3C(=O)N([C@H](C)CO)C[C@@H]2C)cc1	inactive: 1.01

Reference: the supplement of paper PMC9446081
